± gives the standard deviation of the averaged measurements. Some of the results follow.
test system: PfAP2-LT AP2 domain (GST-tagged); assay: gcPBM binding intensity (ln(normalized median fluorescence intensity)); higher = stronger DNA binding
Method in brief: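 GST-fused DNA-binding domains of P. falciparum, expressed in E. coli, were applied at about 25 μg on average for 1 h to an Agilent 4 × 180k array of primer-extended double-stranded 36-bp intergenic genomic probes and negative controls. Binding intensity is the highest Masliner-normalised natural-log median intensity across replicate spots of either probe orientation, measured with Alexa488 anti-GST antibody and a 488 nm scan.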

| Sequence | gcPBM binding intensity (ln) |
| --- | --- |
| TTATCATTTTTGGAATGTACTTACATTAAATATTTA [XGTACX_site4034] | 8.49 ± 0.52 |
| TATATGCAAAATGTCACACATGTGATAAATACATAT [CACACA_site4302] | 9.52 ± 0.27 |
| AACTAATAGTATATTACATGCAAAAGTAAAAGTAAA [TGCATGCA_site411] | 9.02 ± 0.44 |
| GTTGAAATAAAATTAGTGCATATATAAATATATATA | 8.63 ± 0.47 |
| CTCACAATACTTACATGTACATATTATATATATAAA [XGTACX_site1880] | 8.94 ± 0.39 |
| TCATTCTTGTGTTTATGTACACATATTTATATTGTA [XGTACX_site710] | 9.07 ± 0.52 |
| ACTGAAAAAAGAAATACACACATTCTGGATCAGATA [CACACA_site7760] | 9.04 ± 0.49 |
| TTTATGTGTTATAAATGTACATAATATAATTCGTAT [XGTACX_site3845] | 8.66 ± 0.4 |
| TTTTTTTTATTTTGTTGTACGCTTATTTGTATATAT [XGTACX_site7325] | 9.02 ± 0.45 |
| TTATCTATAAATACGAGTACGCAAAATCATATAATA [XGTACX_site2447] | 8.71 ± 0.32 |
| ATTTACGCGCTTATTACACACACATACAAATAAGGA [CACACA_site9157] | 9.34 ± 0.3 |
| TTTTAATATTAAGATGTCTTTTACGTTTATTTTGTA [CACACA_negctrl_site765] | 8.68 ± 0.52 |
| TAATTATTTGCCCTTACTCTGAACATTCGGAATTTA [CACACA_negctrl_site1278] | 8.63 ± 0.47 |
| ATCTGCATATATATATGTACATATTTTAGAATGCAC [XGTACX_site708] | 8.87 ± 0.34 |
| TTCTTTTTAAATTACACACACATATAAATATGTATA [CACACA_site7618] | 9.13 ± 0.37 |
| TTTTTATAAAATTTTATGAGCTCGGAAAAAATAAAC [GTGCAC_negctrl_site637] | 8.38 ± 0.45 |
| TATATATAATATATATATATGGAAATTCTTTTAAAT [XGTACX_negctrl_site50] | 8.41 ± 0.38 |
| TGTATTATATGTAAATGTACATTTAATATTTTATAT [XGTACX_site4461] | 8.79 ± 0.45 |
| GTATGAAATTATAATAGTACATATAAATAAAAAAAA [XGTACX_site8955] | 8.86 ± 0.54 |
| CCACAAGTATATAGTAGTACAATTTTTTTCTCTTTA [XGTACX_site4403] | 8.58 ± 0.47 |
| ATATAAGGATAACCTAGTACATATTATATGAAACAA [XGTACX_site8459] | 8.92 ± 0.45 |
| TACGGTAAATAGTGTTGTACGATACAATTGTTTTCT [XGTACX_site8118] | 8.9 ± 0.3 |
| AAAATAAATAAATAAATATATATATATATATATATA [TGCATGCA_negctrl_site558] | 9.46 ± 0.26 |

| Sequence | gcPBM binding intensity (ln) |
| --- | --- |
| CAATTAAAATGCAACGGTACACATAAAAAAAATAAA [XGTACX_site6216] | 9.04 ± 0.52 |
| AAGGGGAAAAAAAAAAGTACACAAACATAGGATAAT [XGTACX_site377] | 8.99 ± 0.56 |
| TATATATATATATATGTGCGCATTACTTTAAGAATA | 9.6 ± 0.25 |
| TTACAAATAATTTGTTGTACGCTTTTTTTCTTTTTT [XGTACX_site7199] | 8.79 ± 0.57 |
| GTTAAAAAAAGGAGAGATCTCACACAAATATATATA [GTGCAC_negctrl_site117] | 8.83 ± 0.44 |
| CATTTAATAATAACAAGTACACAAAGATGTATAACA [XGTACX_site8315] | 8.83 ± 0.49 |
| ATGATAAATATAAGTTGTACATATATCTATGTGCAT [XGTACX_site6010] | 8.8 ± 0.39 |
| CATAAATACTATATATGTACGTAATTTTTAAAACAT [XGTACX_site7710] | 8.78 ± 0.48 |
| AATATATATGAAAAAAGTACTCAAGGAATAAAAAAA [XGTACX_site7720] | 8.82 ± 0.52 |
| GGGTGCCAAATTAGCACACACATATATACCTGAATT [CACACA_site5551] | 9.38 ± 0.47 |
| GTAGGCATTAAAAAATGTACAAAATATTATGAATTG [XGTACX_site1615] | 8.8 ± 0.54 |
| TTTTTTTTTATTTGTTGTACGAGGTTTTAAAATTTT [XGTACX_site106] | 8.64 ± 0.45 |
| TATAATATTCTATATGCATGTACACCATTCTTTATT [TGCATGCA_site688] | 9.15 ± 0.45 |
| TATTGTTATCTTTTATGTACTTAAAAAAATAAATTT [XGTACX_site4233] | 8.26 ± 0.43 |
| TAATAAAACATATATACACACATTATATATACATAT [CACACA_site8495] | 9.01 ± 0.4 |
| AAAAAGGTTATTGGTACACACATATGTATATAAATA [CACACA_site6402] | 9.09 ± 0.53 |
| TCTGTTCTTTTTTAATGTACAAGAAATATAAAATTC [XGTACX_site3600] | 8.26 ± 0.45 |
| AATTTTTAGTATATAACATAAAATAAAATAAAATAA [GTGCAC_negctrl_site696] | 8.38 ± 0.54 |
| AATTATAAATCTTGCACACAAAAAAAATAATAAAAA [CACACA_site2434] | 9.03 ± 0.52 |
| TAATAAATAATGGTTACACACAAAATATAAAACTTA [CACACA_site3544] | 8.89 ± 0.57 |
| AAATCTTTGTGTGGATGTACTTTTATAAAAAAGAAT [XGTACX_site3830] | 8.7 ± 0.46 |
| TAAACACATATATAGACATGCAACTAGTTTTTATAA [TGCATGCA_site474] | 8.77 ± 0.33 |
| AAAAAGGAAATAATAACACACATTAATAATTATAAA [CACACA_site3401] | 8.92 ± 0.48 |

| Sequence | gcPBM binding intensity (ln) |
| --- | --- |
| TAAAAAGTTATATTCACACACATACACATATAAATA [CACACA_site6398] | 9.24 ± 0.26 |
| TTATTTTTTTTTTTTTGTACACAATTTGACACATTA [XGTACX_site7983] | 8.73 ± 0.49 |
| TTTATTTAATTATGTTGTACATGTAGGATTTATTTT [XGTACX_site7078] | 8.69 ± 0.52 |
| ATAAATAAAACAAATAGTACAATATAAAAAAAAAGG [XGTACX_site87] | 9.02 ± 0.52 |
| TATACAGATATATATACACACATATATATAAATACA [CACACA_site4383] | 9.24 ± 0.39 |
| AAGAGGATACACAATGTGCACTTTTTTTTTTTTTTT [GTGCAC_site9415] | 8.91 ± 0.42 |
| AAAAAAAAAAAAAACACACACACACGCATACACATA [CACACA_site7364] | 10.2 |
| TATATATATAATATATGTACTCATATTAAGAGATAC [XGTACX_site1354] | 8.61 ± 0.41 |
| AATGAGCTTTTTAAAAGTACTAAATATAAATAAATA [XGTACX_site3632] | 8.51 ± 0.52 |
| TATATATGTATATTTTGTACGTATTTATTTACATGA [XGTACX_site4584] | 8.76 ± 0.46 |
| TATATTTATACTTATACACACATTATTGAATTAACC [CACACA_site934] | 8.88 ± 0.41 |
| ATTATTTATATTTGGAGTACTTATAATATTTTTATA [XGTACX_site1289] | 8.66 ± 0.38 |
| AAAAAATATGCATATACACACATATGTATAAATAAC [CACACA_site7090] | 9.28 ± 0.33 |
| CTTTATATATTTTATTGTACTTAAAAAAAAAAAAAA [XGTACX_site2134] | 7.92 ± 0.39 |
| AAAATATTTATTCCTAGTACTTACCATTATATATAT [XGTACX_site363] | 8.8 ± 0.49 |
| AAAAAAAAATGAAAAGAAAAAAAAAGAAAAAAGGGA [CACACA_negctrl_site287] | 8.69 ± 0.58 |
| AGTGTAAGCTAAGTGGTGCGTTGAATAAGGTTTTTT [GTGCAC_site9951] | 8.91 ± 0.52 |
| TATAGGTATTTGTATACACACAAATGTATATATCTA [CACACA_site6713] | 8.9 ± 0.37 |
| TGTATAGTCTAAAGTTGTACAAAAAAAAAAAAAAAA [XGTACX_site5764] | 8.56 ± 0.51 |
| TCTTTGGTATTTACATGTACATATTCTTAAAAACAT [XGTACX_site3124] | 8.88 ± 0.47 |
| GAAAATAAAATATTAGTGCATTATTTGATCAATAAT | 8.63 ± 0.42 |
| AATAGTTGCTAAAGGTGTACAATACATTTATTAGAA [XGTACX_site2773] | 8.82 ± 0.53 |
| TATTACTTAAATAAAAGTACATATAACATTTTAGTT [XGTACX_site196] | 8.46 ± 0.38 |

| Sequence | gcPBM binding intensity (ln) |
| --- | --- |
| ATGTCATAAAAACATATACACACTTGAAATATAAAA [CACACA_site2329] | 8.96 ± 0.4 |
| CATTCCTATTATTATACACACAAATTAAGAATTCAA [CACACA_site787] | 8.74 ± 0.29 |
| TATAATATATTCATGTGTACATATATTTCGAACATA [XGTACX_site1754] | 8.81 ± 0.36 |
| ATAAATATTGCGTGCACACACATAATATTTATATAT [CACACA_site7136] | 9.29 ± 0.36 |
| CGAAAAATATGTATGAGTACTTATATTTAAACTATA [XGTACX_site1911] | 8.55 ± 0.41 |
| AAAAAAAAAAAAAAAACACACAAACGCTTTTTTTTT [CACACA_site4545] | 8.93 ± 0.39 |
| GGATAAGAGGCATATACACACAATTTAAAAAAATAA [CACACA_site4657] | 9.04 ± 0.52 |
| ATTTTTTTGTTAATTTGTACATAAAATTTTATTTTA [XGTACX_site7007] | 8.6 ± 0.42 |
| ATATTTATTTTATAAAGTACTAAAAAATATATTATA [XGTACX_site8522] | 8.28 ± 0.32 |
| TTGTTTTATACATAGTGTACATATAAAAATTTTTTT [XGTACX_site7549] | 8.6 ± 0.45 |
| ATATATATTATAATCTGTACATAAATATATAATAAA [XGTACX_site5425] | 8.68 ± 0.38 |
| TCTTAAATTATGATAAAATATAATAAATAAATAAAT [CACACA_negctrl_site1520] | 8.38 ± 0.49 |
| ATTTTCCCTAGAATATGTACACATAGTAAATATTAT [XGTACX_site7499] | 8.71 ± 0.39 |
| CAGATAAATAAACACACACACACATATATATATATA [CACACA_site9311] | 10.16 ± 0.078 |
| ATATATAAATATGAAACACACATTCTATTTAATTCG [CACACA_site1450] | 8.76 ± 0.42 |
| AAATAAAGAAATGCAAGTACATACTAAACTAATCCA [XGTACX_site1209] | 9 ± 0.33 |
| AAAAAAAAAAAAGAAAAATATATATATAAATAAATA [GTGCAC_negctrl_site569] | 8.37 ± 0.61 |
| ATATGTACAAATTATACACACATGTACAATTATATA [CACACA_site1253] | 9.15 ± 0.34 |
| ATGTCACAATTTTTCACACACAAAATTTATATACAT [CACACA_site2030] | 9.22 ± 0.39 |
| TATGTTTCTATATATACATGCAAGAAGAAATGTACT [TGCATGCA_site891] | 8.63 ± 0.34 |

— the supplement of paper PMC11417369
